In all, about 48,000 compounds went through this assay and about 550 (1.1%) were called active. About 4% were inconclusive and are not listed. Rule as the data show it: active = potency below about 15 µM; inconclusive = mostly about 16 µM to 33 µM; inactive = weaker than that. The list shows a part of the results.
What follows are compounds tested against Lysosomal acid glucosylceramidase (Homo sapiens) (UniProt P04062) (assay: Glucocerebrosidase). Details: purified enzyme, resorufin glucoside fluorescence (screen aimed at inhibitors), 20 min.
UniProt P04062, sequence (P04062 whole entry, looked up): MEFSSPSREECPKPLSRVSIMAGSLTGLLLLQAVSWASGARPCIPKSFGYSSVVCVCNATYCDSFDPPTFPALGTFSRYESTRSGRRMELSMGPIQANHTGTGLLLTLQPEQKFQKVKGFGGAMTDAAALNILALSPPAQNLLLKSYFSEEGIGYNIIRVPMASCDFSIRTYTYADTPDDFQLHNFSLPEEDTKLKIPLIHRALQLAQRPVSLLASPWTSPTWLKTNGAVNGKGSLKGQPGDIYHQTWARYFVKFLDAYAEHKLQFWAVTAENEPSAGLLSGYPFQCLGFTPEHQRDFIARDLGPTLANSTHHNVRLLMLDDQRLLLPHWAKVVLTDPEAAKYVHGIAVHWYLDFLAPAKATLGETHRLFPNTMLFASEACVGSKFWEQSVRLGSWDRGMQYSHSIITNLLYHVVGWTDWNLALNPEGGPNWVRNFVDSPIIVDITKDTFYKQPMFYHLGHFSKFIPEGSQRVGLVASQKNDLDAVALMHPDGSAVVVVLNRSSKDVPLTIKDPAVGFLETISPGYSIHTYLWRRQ
Method in brief: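 Normal human glucocerebrosidase (0.2 nM final) was assayed with resorufin β-D-glucopyranoside (30 uM final) in 50mM citric acid/KH2PO4, 10mM sodium taurocholate, 0.01% tween-20, pH 5.9. Compounds were titrated; fluorescence (Ex 548, Em 600) read after 20 min at RT.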
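Also: the screen sought inhibitors.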
Potency is read from the fitted curve at half-maximal effect.

Potency, inactive:
CC(=O)c1c(C)[nH]c(C(=O)NCCN2CCC(C)CC2)c1C > 76.9 µM
OC(COc1ccc2cc(Br)ccc2c1)CN1CCCC1 (configuration not stated) > 76.9 µM
Nc1ccc(-c2nc3ccc(-c4nc5ccccc5o4)cc3[nH]2)cc1 > 76.9 µM
OCc1nn2c(c1Br)NC(c1ccccc1)CC2C(F)(F)F (configuration not stated) > 76.9 µM
CC(C)C(C(=O)NCC1CCCO1)N(Cc1ccco1)C(=O)CNS(=O)(=O)c1ccc(F)cc1 (configuration not stated) > 76.9 µM
CC(C)N1C(=O)c2ccccc2C1C(=O)NC1CCCCCC1 (configuration not stated) > 76.9 µM
COc1cccc(-n2c(COc3ccccc3C)nnc2SCC(=O)O)c1 > 76.9 µM
CCOC(=O)C1=C(c2ccccc2)Nc2ncnn2C1c1cc(OC)cc(OC)c1OC (configuration not stated) > 76.9 µM
NC(=O)CSc1nnc2sc3ccccc3n12 > 76.9 µM
COc1ccc(NC(=O)CSc2nnc(-c3cccs3)n2-c2ccccc2)cc1 > 76.9 µM
CCOC(=O)C1C(=O)CC(C)(O)C(C(=O)OCC)C1c1ccccc1OC (configuration not stated) > 76.9 µM
CC1(c2ccc(Cl)cc2)NC(=O)N(CC(=O)NC(=O)NCc2ccco2)C1=O (configuration not stated) > 76.9 µM
CCCNC(=O)Cc1ccsc1 > 76.9 µM
COC(=O)c1ccc(COC(=O)c2ccc(-n3cnnn3)cc2)o1 > 76.9 µM
CCc1n[nH]c2c1C(=O)CC(C)(C)C2 > 76.9 µM
CSC(=NCCCN1CCOCC1)NS(=O)(=O)c1cccs1 > 76.9 µM
O=C(NC1CCCC1)NS(=O)(=O)c1ccccc1Cl > 76.9 µM
CCOC(=O)c1ccc(NC(=O)CCc2nc(-c3ccc(C)cc3)no2)cc1 > 76.9 µM
N#CC1=C2C=Cc3ccccc3N2CCCC1=O > 76.9 µM
COc1cc2nc(CN(C)CC(=O)Nc3ccc(N4CCOCC4)cc3)[nH]c(=O)c2cc1OC > 76.9 µM
COc1cccc(-n2cc3c(=O)n(C)c(=O)n(C)c3c2)c1 > 76.9 µM
Cn1c(C(O)c2ccc3c(c2)OCO3)nc2ccccc21 (configuration not stated) > 76.9 µM
COc1ccc2c(C(=O)CN3CCN(CCO)CC3)c[nH]c2c1
COc1cc(C(=O)Oc2ccccc2)ccc1OCc1c(C)noc1C > 76.9 µM
O=C(NCc1ccccn1)c1cc2ccccc2oc1=O > 76.9 µM
OC(c1ccc(Cl)cc1Cl)C(Cc1cccnc1)n1cncn1 (configuration not stated) > 76.9 µM
O=C1CC(c2ccccc2)n2ncnc2N1 (configuration not stated) > 76.9 µM
CCN(CCCNC(=O)CCn1c(=O)[nH]c2ccccc2c1=O)c1ccccc1 > 76.9 µM
c1ccc(-c2n[nH]c3c2CCC3)cc1 > 76.9 µM
Cc1ccc(CN2CCN(C(=O)C3CCCO3)CC2)cc1 (configuration not stated) > 76.9 µM
COC(=O)c1ccccc1NC(=O)Cn1c(-c2nonc2N)nc2ccccc21 > 76.9 µM
CCC(=O)Nc1ccc(N2CCN(Cc3ccccc3F)CC2)cc1 > 76.9 µM
Cc1nnc(SCc2ccc(F)cc2)s1 > 76.9 µM
COc1cc2[nH]c(=O)c(C(=O)NCCCN3CCCCC3)c(O)c2cc1OC > 76.9 µM
CCOC(=O)c1[nH]c2ccc(OC)cc2c1NS(=O)(=O)c1ccc(OC)cc1OC > 76.9 µM
CCOC(=O)c1ccc(Oc2c(C)oc3c(CN4CCN(C)CC4)c(O)ccc3c2=O)cc1
O=C(CN1C(=O)c2ccccc2C1=O)N1CCOCC1 > 76.9 µM
Cc1nc2ccc(NC(=O)c3c(-c4ccccc4)noc3C)cc2s1 > 76.9 µM
CC(C)OC(=O)CSc1nnc(-c2ccc(O)cc2)n1Cc1ccccc1 > 76.9 µM
CCc1cc2c(=O)c(-c3cscn3)coc2cc1OC > 76.9 µM
O=C(Cc1ccccc1)Nc1nc(-c2cccs2)cs1 > 76.9 µM
COc1cccc(C(=O)CSc2nnc(-c3cc(OC)cc(OC)c3)o2)c1 > 76.9 µM
COc1ccccc1NC(=O)C1C2CCCCC21 (configuration not stated) > 76.9 µM
CC(C)Cn1c(=O)c(C(=O)Nc2ccncc2)c(O)c2ccccc21 > 76.9 µM
CCOC(=O)c1c(C)[nH]c(C(=O)Cn2nnc(-c3ccc(Cl)cc3)n2)c1C > 76.9 µM
O=S1(=O)CCN2C(=N1)Sc1c2ccc2c1CCCC2 > 76.9 µM
COC(=O)c1cn(C)c2ccc(S(=O)(=O)N3CC(C)CC(C)C3)cc2c1=O (configuration not stated) > 76.9 µM
c1ccc(SCCOCCn2cncn2)cc1 > 76.9 µM
CCOC(=O)c1cc2c(C(F)(F)F)cc(-c3cccnc3)nc2o1
O=C(Nc1nccs1)c1cc2sccc2n1Cc1ccc(F)cc1 > 76.9 µM
COCCn1c(=S)[nH]c2cc(C(=O)N3CCN(c4ccccc4OC)CC3)ccc2c1=O > 76.9 µM
Cc1cccc(C)c1NC(=O)N1CCC(n2cnc3ccccc32)CC1 > 76.9 µM
Cc1cc(NC(=O)COC(=O)CCC(=O)c2ccc(F)cc2)no1 > 76.9 µM
Cn1c(=O)c(C(=O)NCCO)c(O)c2ccccc21 > 76.9 µM
CCOCCCNC(=O)C(NC(=O)c1ccc(=O)[nH]c1)c1ccccc1 (configuration not stated) > 76.9 µM
C=CCN1C(=O)C(O)(CC(=O)c2c(C)n[nH]c2C)c2cc(Br)ccc21 (configuration not stated) > 76.9 µM
C/C(NC1CCCCC1)=C(/C#N)C(=O)NCCN1CCOCC1 > 76.9 µM
Cc1ccccc1CN(c1ccc(C(=O)N2CCCC2)cc1)S(C)(=O)=O > 76.9 µM
O=C(CSc1ncn[nH]1)Nc1cccc2ccccc12 > 76.9 µM
O=C(c1ccco1)N1CCN(S(=O)(=O)c2cccc(C(F)(F)F)c2)CC1 > 76.9 µM
O=C(Cn1nnc2ccccc21)NCc1ccccc1 > 76.9 µM
COc1ccc(OC)c(NC(=O)c2c(NC(=O)c3ccco3)sc3c2CCC3)c1 > 76.9 µM
CCOC(=O)CNC(=O)c1ccc2c(c1)OCCO2 > 76.9 µM
CSCC[C@H](NC(=O)OC(C)(C)C)c1nnc(SCc2cccc(F)c2)o1 > 76.9 µM
Cc1c(F)cccc1NS(=O)(=O)c1ccccc1C#N > 76.9 µM
CC(C)(C)NC(=O)C(c1ccco1)N(C(=O)c1csnn1)c1ccccc1 (configuration not stated) > 76.9 µM
Cc1ccc(N2C(=O)[C@@H]3C(c4ccc(F)cc4)=NO[C@@H]3C2=O)cc1 > 76.9 µM
COc1ccc(C2=NOC(C(=O)N3CCCCCC3)C2)cc1OC (configuration not stated) > 76.9 µM
CCC1(CC)C(=O)C(C)(C)C(=O)OC1c1cccs1 (configuration not stated) > 76.9 µM
CCOC(=O)C1CCN(C(=O)Nc2ccc3snnc3c2)CC1 > 76.9 µM
O=C(c1ccc(COc2ccc(Cl)cc2)o1)N1CCN(Cc2ccc3c(c2)OCO3)CC1 > 76.9 µM
Cc1ccsc1C(=O)OC1CCOC1=O (configuration not stated) > 76.9 µM
CC1CCCCN1CCn1c(=S)[nH]c2ncccc2c1=O (configuration not stated) > 76.9 µM
O=C(COc1ccccc1O)Nc1ccc(Cl)cc1 > 76.9 µM
CCc1ccccc1NC(=O)N[C@@H](C)C(=O)OC > 76.9 µM
O=C(Cc1ccc(-n2cccc2)cc1)NCc1cccs1 > 76.9 µM
COc1cccc(C(=O)Nc2ccc(NC(=O)C(C)(C)C)cn2)c1 > 76.9 µM
Cc1cc(SCC(=O)NC(=O)NCc2ccco2)nc2ccccc12 > 76.9 µM
Cn1c(=O)c2cn(-c3ccc4c(c3)OCCO4)cc2n(C)c1=O > 76.9 µM
CCN(CC)CCCNC(=O)c1cc(-c2cccc(Cl)c2)on1 > 76.9 µM
CC1=C(C(=O)Nc2ccccn2)C(c2ccc(Br)cc2)n2ncnc2N1 (configuration not stated) > 76.9 µM
CCN(CC)S(=O)(=O)c1cccc(-c2nnc(SCC(=O)c3cc(C)n(C4CC4)c3C)o2)c1 > 76.9 µM
O=C1CCC(C(=O)OCC(=O)C23CC4CC(CC(C4)C2)C3)N1 (configuration not stated) > 76.9 µM
Cc1ccccc1NC(=O)c1ccccc1 > 76.9 µM
COc1ccc(S(=O)(=O)N2CCC(C(N)=O)CC2)c2ccccc12 > 76.9 µM
Cc1nn2c(N3CCN(C(=O)c4ccco4)CC3)cc(C(C)(C)C)nc2c1-c1ccccc1 > 76.9 µM
COc1ccc2c(c1)CCc1c(C(=O)Nc3ccc(OC)c(OC)c3)noc1-2 > 76.9 µM
Oc1cccc(C(=S)N2CCN(Cc3ccccc3)CC2)c1 > 76.9 µM
COc1ccc(CC(NC(C)=O)C(=O)NC2CCN(c3c4c(nc5ncnn35)CCC4)CC2)cc1 (configuration not stated) > 76.9 µM
CC1(C)CC2(CCO1)N1CC3(C)CN2CC(C)(C1)C3O (configuration not stated) > 76.9 µM
O=C1CC(c2ccc(Cl)cc2)n2nc(N3C(=O)CCC3=O)nc2N1 (configuration not stated) > 76.9 µM
COc1cc(CC(NC(C)=O)C(=O)NC2CCN(c3nc(C)cc(C)c3C#N)CC2)cc(OC)c1 (configuration not stated) > 76.9 µM

From PubChem BioAssay AID360 (National Center for Advancing Translational Sciences (NCATS), 2006)
